These results are taken from the supplement of paper PMC9446081.

SMILES strings stand for the structures. Hit rate of the full screen: of about 39,000 compounds, about 220 (0.56%) showed activity. The list shows a part of the results.
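Note: static incubation at 37 °C against the wild-type strain, values averaged over two biological replicates.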

The test system of this assay is Escherichia coli K-12 BW25113. Put plainly: relative growth (OD600 normalised to plate interquartile mean) (fraction); higher = less growth inhibition, active = 0.2 or less. The conditions noted are these: 50 µM; LB; incubation time: overnight (16-24 h).
For the molecule `COc1ccccc1S(=O)(=O)N(C)C[C@H]1Oc2cc(Br)ccc2S(=O)(=O)N([C@H](C)CO)C[C@H]1C`, the relative growth was inactive: 0.998. As for `Cc1noc(C)c1NC(=O)N(C)C[C@@H]1Oc2c(NC(=O)c3ccncc3)cccc2C(=O)N([C@H](C)CO)C[C@@H]1C`, the figure is inactive: 1. For the molecule `COc1ccc(S(=O)(=O)Nc2ccc3c(c2)C(=O)N([C@@H](C)CO)C[C@@H](C)[C@H](CN(C)Cc2ccc(Cl)c(Cl)c2)O3)cc1`, the relative growth was inactive: 0.978. On to `CC1OC(OC2C(O)CC(OC3C(O)CC(OC4CCC5(C)C(CCC6C5CCC5(C)C(C7=CC(=O)OC7)CCC65O)C4)OC3C)OC2C)CC(O)C1O` (stereo not given), for which the relative growth is inactive: 1.06.

In the case of `O=C(O)c1cc(O)[nH]c(=O)c1`, the relative growth is inactive: 1.02. Turning to `CC(CCC(=O)O)C1CCC2C3C(=O)CC4CC(=O)CCC4(C)C3CC(=O)C12C` (stereo not given), the relative growth is inactive: 1.07. `C[C@H]1CN([C@@H](C)CO)C(=O)Cc2cc(NS(=O)(=O)c3ccc(Cl)cc3)ccc2O[C@@H]1CN(C)Cc1ccc(C(F)(F)F)cc1`: the relative growth is inactive: 0.97. Consider `O=C(CS)NCCCCCCNC(=O)[C@H]1C[C@H]2C(=O)NCC(=O)N2[C@H]1c1ccc(O)cc1`, for which the relative growth was inactive: 0.997.

Take `C[C@H]1COC(=O)[C@H](NC(=O)OCC2c3ccccc3-c3ccccc32)CC=CC[C@@H](CC(=O)NCCO)C(=O)N1`: the relative growth was inactive: 1.02. With `[N-]=[N+]=Nc1ccccc1[C@H]1OC(c2ccc(OCCCO)cc2)=N[C@@]1(Cc1ccccc1)C(=O)NC[C@@H](O)CO` the figure was inactive: 0.998.

Consider `C[C@@H]1CCCCO[C@H](CN(C)C(=O)CCC(F)(F)F)[C@@H](C)CN([C@@H](C)CO)C(=O)c2cc(NS(=O)(=O)c3ccccc3)ccc2O1`, for which the relative growth was inactive: 0.89. With `C[C@@H]1CCCCO[C@H](CN(C)S(C)(=O)=O)[C@H](C)CN([C@@H](C)CO)C(=O)c2cc(NS(C)(=O)=O)ccc2O1` the figure was inactive: 1.03; with `C[C@H](CO)N1C[C@H](C)[C@H](CN(C)Cc2ccc(C(F)(F)F)cc2)Oc2ccc(NC(=O)CCCCCC(=O)Nc3ccccc3N)cc2CC1=O`, inactive: 1.02; with `C[C@@H]1CCCCO[C@H](CN(C)Cc2ccc(C(F)(F)F)cc2)[C@H](C)CN([C@H](C)CO)C(=O)c2cc(NS(C)(=O)=O)ccc2O1`, inactive: 0.988. With `Cc1cc(C)c(NC(=O)CN(CC(=O)O)CC(=O)O)c(C)c1Br` the figure was inactive: 0.973; with `CC(C)NC(=O)Nc1ccc2c(c1)C(=O)N([C@H](C)CO)C[C@H](C)[C@H](CN(C)Cc1ccc(C(F)(F)F)cc1)OCCCC[C@@H](C)O2`, inactive: 0.976; with `Cc1noc(C)c1NC(=O)N(C)C[C@@H]1Oc2c(NS(=O)(=O)c3cn(C)cn3)cccc2C(=O)N([C@@H](C)CO)C[C@@H]1C`, inactive: 0.995. With `COC(=O)c1c2oc(c1C(=O)OC)C(=O)N(C)Cc1cn(nn1)C[C@@H](C)NC(=O)N[C@H](COC(=O)NCCCCCC(=O)NO)CC2`, the relative growth was inactive: 0.986. For the molecule `C[C@@H]1CN([C@H](C)CO)C(=O)c2cc(NC(=O)Nc3ccccc3)ccc2O[C@@H]1CN(C)Cc1ccc(-c2ccccc2)cc1`, the relative growth was inactive: 1.02. With `CNC(=O)C(=O)Nc1cc(F)ccc1F` the figure was inactive: 1.01; with `C[C@H]1CN([C@@H](C)CO)C(=O)c2cc(NC(=O)c3ccncc3)ccc2O[C@@H]1CN(C)S(=O)(=O)c1cn(C)cn1`, inactive: 0.978. As for `Cc1cc2nc3c(=O)[nH]c(=O)nc-3n(C[C@H](O)[C@H](O)[C@H](O)COP(=O)(O)OP(=O)(O)OC[C@H]3O[C@@H](n4cnc5c(N)ncnc54)[C@H](O)[C@@H]3O)c2cc1C`, the figure is inactive: 0.984; as for `O=C(C[C@@H]1C[C@H]2c3cc(NC(=O)c4ccc5c(c4)OCO5)ccc3O[C@H]2[C@@H](CO)O1)NCCc1ccccc1`, inactive: 0.972; as for `Cn1cnc(CCNC(=O)C[C@@H]2CC[C@H]3[C@@H](COC[C@@H](O)CN3C(=O)Nc3ccc(C(F)(F)F)cc3)O2)c1`, inactive: 0.946. With `C[C@@H]1CCCCO[C@@H](CN(C)S(=O)(=O)c2ccccc2)[C@H](C)CN([C@H](C)CO)C(=O)c2cc(NC(=O)Nc3ccccc3)ccc2O1` the figure was inactive: 1.02; with `COc1ccc(S(=O)(=O)Nc2ccc3c(c2)C(=O)N([C@H](C)CO)C[C@@H](C)[C@@H](CN(C)C(=O)Nc2ccc(C(F)(F)F)cc2)OCCCC[C@@H](C)O3)cc1`, inactive: 1.01. Turning to `C[C@H](CO)N1C[C@H](C)[C@H](CN(C)Cc2ccc3c(c2)OCO3)OCCCC[C@H](C)Oc2ccc(NS(=O)(=O)c3ccc(F)cc3)cc2C1=O`, the relative growth is inactive: 0.995. On to `C[C@@H]1CN([C@H](C)CO)C(=O)Cc2cc(NC(=O)C3CCCCC3)ccc2O[C@@H]1CN(C)Cc1ccc(C(=O)Nc2ccccc2N)cc1`, for which the relative growth was inactive: 1. Consider `COC(=O)c1c(CC[C@@H](CO)NC(=O)N[C@@H](C)Cn2cc(C3(O)CCCCC3)nn2)oc(C(C)=O)c1C(=O)OC`, for which the relative growth was inactive: 0.987.

`CCCOC(=S)N[C@H]1OC[C@@H](O)[C@@H](O)[C@@H]1O`: the relative growth is inactive: 0.988. With `COc1ccccc1CNC(=O)C[C@@H]1C[C@@H]2c3cc(NC(=O)Nc4ccc(C(F)(F)F)cc4)ccc3O[C@@H]2[C@@H](CO)O1` the figure was inactive: 0.992.

`C[C@H](CO)N1C[C@H](C)[C@H](CN(C)Cc2ccccc2)OCCCC[C@H](C)Oc2ccc(NS(=O)(=O)c3ccc(Cl)cc3)cc2C1=O`: the relative growth was inactive: 0.99.

`C[C@H]1CN([C@@H](C)CO)C(=O)c2cccc(NC(=O)Nc3ccc(C(F)(F)F)cc3)c2O[C@@H]1CN(C)Cc1ccccc1`: the relative growth is inactive: 0.774. With `C[C@@H]1CN([C@@H](C)CO)C(=O)c2cc(C#CC3(O)CCCC3)cnc2O[C@@H]1CN(C)S(=O)(=O)c1cccc(F)c1` the figure was inactive: 0.992. With `O=c1[nH]cc(COCc2ccccc2)c(=O)[nH]1`, the relative growth was inactive: 0.98. As to `C[C@@H]1CN([C@H](C)CO)S(=O)(=O)c2ccc(Br)cc2O[C@H]1CN(C)CC1CCOCC1`, the relative growth was inactive: 1.02. Regarding `Cc1noc(C)c1NC(=O)N(C)C[C@@H]1Oc2ccc(NS(=O)(=O)c3c(C)noc3C)cc2C(=O)N([C@H](C)CO)C[C@H]1C`, the relative growth was inactive: 1.03. As for `COc1ccc(S(=O)(=O)N2C[C@@H](O)COC[C@@H]3O[C@H](CC(=O)NCCCN4CCOCC4)CC[C@H]32)cc1`, the figure is inactive: 1.01; as for `C[C@@H]1CCCCO[C@@H](CN(C)S(=O)(=O)c2ccccc2)[C@H](C)CN([C@@H](C)CO)C(=O)c2cc(NC(=O)CCC(F)(F)F)ccc2O1`, inactive: 0.982. As for `Cc1noc(C)c1S(=O)(=O)Nc1cccc2c1O[C@H](CN(C)Cc1ccc(-c3ccccc3)cc1)[C@H](C)CN([C@H](C)CO)C2=O`, the figure is inactive: 0.994.

For the molecule `C/C1=C2/[N]([Co+][OH])[C@H]([C@H](CC(N)=O)[C@@]2(C)CCC(=O)NC[C@@H](C)OP(=O)(O)O[C@H]2[C@@H](O)[C@@H](n3cnc4cc(C)c(C)cc43)O[C@@H]2CO)[C@]2(C)N=C(/C(C)=C3N=C(/C=C4N=C1[C@@H](CCC(N)=O)C/4(C)C)[C@@H](CCC(N)=O)[C@]\3(C)CC(N)=O)[C@@H](CCC(N)=O)[C@]2(C)CC(N)=O`, the relative growth is inactive: 1.12.

As to `C[C@@H]1CN([C@@H](C)CO)C(=O)c2cc(NC(=O)CCC(F)(F)F)ccc2O[C@@H](C)CCCCO[C@@H]1CN(C)C(=O)NC1CCCCC1`, the relative growth was inactive: 0.989. With `COc1ccc(NC(=O)N(C)C[C@H]2Oc3ncc(Br)cc3C(=O)N([C@H](C)CO)C[C@@H]2C)cc1` the figure was inactive: 1.02. As for `Cc1cccc(OC[C@@H](O)CN)c1`, the figure is inactive: 0.98; as for `CC(C)NC(=O)Nc1ccc2c(c1)C(=O)N([C@H](C)CO)C[C@H](C)[C@H](CN(C)C(=O)Nc1ccc(F)cc1)OCCCC[C@H](C)O2`, inactive: 0.99. As for `COCCOC(=O)N1C(=O)[C@@]2(c3ccccc31)[C@H](c1ccccc1OCCO)N1[C@H](c3ccccc3)[C@H](c3ccccc3)OC(=O)[C@H]1[C@@H]2C(=O)Nc1nc2ccccc2s1`, the figure is inactive: 1.03; as for `Cc1ccc(S(=O)(=O)N(C)C[C@@H]2OCCCC[C@@H](C)Oc3ccc(NC(=O)NC4CCCCC4)cc3C(=O)N([C@@H](C)CO)C[C@H]2C)cc1`, inactive: 1. Consider `C[C@H]1CN([C@@H](C)CO)C(=O)c2cc(NC(=O)CCN3CCOCC3)ccc2O[C@@H]1CN(C)S(=O)(=O)c1ccc(F)cc1`, for which the relative growth is inactive: 0.997.

Consider `C[C@H]1CN([C@@H](C)CO)C(=O)c2cccc(NS(=O)(=O)c3cn(C)cn3)c2O[C@H]1CN(C)S(=O)(=O)c1ccc(F)cc1`, for which the relative growth is inactive: 0.992.

For the molecule `C[C@@H]1CN([C@H](C)CO)C(=O)CCCn2cc(nn2)CO[C@@H]1CN(C)S(=O)(=O)c1ccc(C#N)cc1`, the relative growth is inactive: 1.01. As for `COc1ccc(S(=O)(=O)N(C)C[C@H]2OCCCC[C@@H](C)Oc3ccc(NC(=O)Nc4ccc5c(c4)OCO5)cc3C(=O)N([C@@H](C)CO)C[C@@H]2C)cc1`, the figure is inactive: 1.04. As for `COc1ccc(C#Cc2ccc3c(c2)[C@]2(C(=O)N3)[C@H](c3ccc(OCCO)cc3)N3[C@H](c4ccccc4)[C@H](c4ccccc4)OC(=O)[C@H]3[C@@H]2C(=O)N2CCc3cc(OC)c(OC)cc3C2)cc1`, the relative growth was inactive: 1.1.

`Cc1cccc(S(=O)(=O)N2C[C@H](O)COC[C@H]3O[C@H](CC(=O)NCc4ccc5c(c4)OCO5)CC[C@@H]32)c1`: the relative growth was inactive: 0.996. With `C[C@@H]1CN([C@@H](C)CO)C(=O)c2cc(NC(=O)NC3CCCCC3)ccc2O[C@@H]1CN(C)Cc1ccc(C(F)(F)F)cc1` the figure was inactive: 0.91. With `C[C@@H]1CN([C@@H](C)CO)C(=O)c2cc(/C=C/c3ccccc3)cnc2O[C@@H]1CN(C)C(=O)CN1CCOCC1`, the relative growth is inactive: 0.997.
